From the supplement of paper PMC8728848
This is one part of the list.

Key:
Experiment in all cases: glycan array binding signal (z-score within array); higher = stronger binding
Conditions in all cases: glycan notation: IUPAC condensed, linker removed
Fuc(a1-2)Gal = target: Fuc(a1-2)Gal
How it was run: (§1)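 Glycan array data were curated from 3228 arrays in the Consortium for Functional Glycomics database and kept only where the protein sequence was available. Glycan names were converted to IUPAC-condensed notation, and columns mapping to the same glycan were averaged. The binding signal is a within-array Z-score, averaged across arrays of the same protein sequence at different concentrations or buffers and across linkers. Negative Z-scores can be read as non-binding.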

Fuc(a1-2)Gal(b1-3)GalNAc = target: Fuc(a1-2)Gal(b1-3)GalNAc
How it was run: as §1

[1] = target: Fuc(a1-2)Gal(b1-3)GalNAc(a1-3)[Fuc(a1-2)]Gal(b1-4)Glc
How it was run: as §1

[2] = target: Fuc(a1-2)Gal(b1-3)GalNAc(a1-3)[Fuc(a1-2)]Gal(b1-4)GlcNAc
How it was run: as §1

[3] = target: Fuc(a1-2)Gal(b1-3)GalNAc(b1-3)Gal
How it was run: as §1

[4] = target: Fuc(a1-2)Gal(b1-3)GalNAc(b1-3)Gal(a1-4)Gal(b1-4)Glc
How it was run: as §1

[5] = target: Fuc(a1-2)Gal(b1-3)GalNAc(b1-4)[Neu5Ac(a2-3)]Gal(b1-4)Glc
How it was run: as §1

Fuc(a1-2)Gal(b1-3)GlcNAc = target: Fuc(a1-2)Gal(b1-3)GlcNAc
How it was run: as §1

[6] = target: Fuc(a1-2)Gal(b1-3)GlcNAc(b1-2)Man(a1-3)[Fuc(a1-2)Gal(b1-3)GlcNAc(b1-2)Man(a1-6)]Man(b1-4)GlcNAc(b1-4)GlcNAc
How it was run: as §1

[7] = target: Fuc(a1-2)Gal(b1-3)GlcNAc(b1-3)Gal(b1-4)Glc
How it was run: as §1

[8] = target: Fuc(a1-2)Gal(b1-3)GlcNAc(b1-3)[Fuc(a1-3)[Gal(b1-4)]GlcNAc(b1-6)]Gal(b1-4)Glc
How it was run: as §1

[9] = target: Fuc(a1-2)Gal(b1-3)[Fuc(a1-4)]GlcNAc
How it was run: as §1

[10] = target: Fuc(a1-2)Gal(b1-3)[Fuc(a1-4)]GlcNAc(b1-2)Man(a1-3)[Fuc(a1-2)Gal(b1-3)[Fuc(a1-4)]GlcNAc(b1-2)Man(a1-6)]Man(b1-4)GlcNAc(b1-4)GlcNAc
How it was run: as §1

[11] = target: Fuc(a1-2)Gal(b1-3)[Fuc(a1-4)]GlcNAc(b1-3)[Fuc(a1-3)[Gal(b1-4)]GlcNAc(b1-6)]Gal(b1-4)Glc
How it was run: as §1

[12] = target: Fuc(a1-2)Gal(b1-3)[Fuc(a1-4)]GlcNAc(b1-3)[Gal(b1-4)GlcNAc(b1-6)]Gal(b1-4)Glc
How it was run: as §1

Fuc(a1-2)Gal(b1-4)Glc = target: Fuc(a1-2)Gal(b1-4)Glc
How it was run: as §1

Fuc(a1-2)Gal(b1-4)Glc6S = target: Fuc(a1-2)Gal(b1-4)Glc6S
How it was run: as §1

Fuc(a1-2)Gal(b1-4)GlcNAc = target: Fuc(a1-2)Gal(b1-4)GlcNAc
How it was run: as §1

[13] = target: Fuc(a1-2)Gal(b1-4)GlcNAc(b1-2)Man(a1-3)[Fuc(a1-2)Gal(b1-4)GlcNAc(b1-2)Man(a1-6)]Man(b1-4)GlcNAc(b1-4)GlcNAc
How it was run: as §1

[14] = target: Fuc(a1-2)Gal(b1-4)GlcNAc(b1-3)Gal(b1-4)GlcNAc
How it was run: as §1

[15] = target: Fuc(a1-2)Gal(b1-4)GlcNAc(b1-3)Gal(b1-4)GlcNAc(b1-3)Gal(b1-4)GlcNAc
How it was run: as §1

[16] = target: Fuc(a1-2)Gal(b1-4)GlcNAc(b1-3)GalNAc
How it was run: as §1

[17] = target: Fuc(a1-2)Gal(b1-4)GlcNAc6S
How it was run: as §1

[18] = target: Fuc(a1-2)Gal(b1-4)[Fuc(a1-3)]GlcNAc
How it was run: as §1

[19] = target: Fuc(a1-2)Gal(b1-4)[Fuc(a1-3)]GlcNAc(b1-2)Man(a1-3)[Fuc(a1-2)Gal(b1-4)[Fuc(a1-3)]GlcNAc(b1-2)Man(a1-6)]Man(b1-4)GlcNAc(b1-4)GlcNAc
How it was run: as §1

[20] = target: Fuc(a1-2)Gal(b1-4)[Fuc(a1-3)]GlcNAc(b1-3)Gal(b1-4)[Fuc(a1-3)]GlcNAc
How it was run: as §1

[21] = target: Fuc(a1-2)Gal(b1-4)[Fuc(a1-3)]GlcNAc(b1-3)Gal(b1-4)[Fuc(a1-3)]GlcNAc(b1-3)Gal(b1-4)[Fuc(a1-3)]GlcNAc
How it was run: as §1

Fuc(a1-2)Gal6S(b1-4)Glc = target: Fuc(a1-2)Gal6S(b1-4)Glc
How it was run: as §1

[22] = target: Fuc(a1-2)Gal6S(b1-4)Glc6S
How it was run: as §1

[23] = target: Fuc(a1-2)Gal6S(b1-4)GlcNAc
How it was run: as §1

B1: SLP (Clostridium difficile), Q183M8 (protein)
chain: MATTGTQGYTVVKNDWKKAVKQLQDGLKDNSIGKITVSFNDGVVGEVAPKSANKKADRDAAAEKLYNLVNTQLDKLGDGDYVDFSVDYNLENKIITNQADAEAIVTKLNSLNEKTLIDIATKDTFGMVSKTQDSEGKNVAATKALKVKDVATFGLKSGGSEDTGYVVEMKAGAVEDKYGKVGDSTAGIAINLPSTGLEYAGKGTTIDFNKTLKVDVTGGSTPSAVAVSGFVTKDDTDLAKSGTINVRVINAKEESIDIDASSYTSAENLAKRYVFDPDEISEAYKAIVALQNDGIESNLVQLVNGKYQVIFYPEGKRLETKSLEHHHHHH
Fuc(a1-2)Gal
  glycan array binding signal (z-score): -0.17
Fuc(a1-2)Gal(b1-3)GalNAc
  glycan array binding signal (z-score): -0.184
[1]
  glycan array binding signal (z-score): -0.202
[2]
  glycan array binding signal (z-score): -0.187
[3]
  glycan array binding signal (z-score): 1.35
[4]
  glycan array binding signal (z-score): -0.199
[5]
  glycan array binding signal (z-score): -0.17
Fuc(a1-2)Gal(b1-3)GlcNAc
  glycan array binding signal (z-score): -0.17
[6]
  glycan array binding signal (z-score): 0.556
[7]
  glycan array binding signal (z-score): 3.53
[8]
  glycan array binding signal (z-score): -0.163
[9]
  glycan array binding signal (z-score): -0.18
[10]
  glycan array binding signal (z-score): 0.054
[11]
  glycan array binding signal (z-score): -0.158
[12]
  glycan array binding signal (z-score): -0.156
Fuc(a1-2)Gal(b1-4)Glc
  glycan array binding signal (z-score): -0.174
Fuc(a1-2)Gal(b1-4)Glc6S
  glycan array binding signal (z-score): -0.166
Fuc(a1-2)Gal(b1-4)GlcNAc
  glycan array binding signal (z-score): -0.198
[13]
  glycan array binding signal (z-score): 3.46
[14]
  glycan array binding signal (z-score): -0.199
[15]
  glycan array binding signal (z-score): -0.176
[16]
  glycan array binding signal (z-score): -0.149
[17]
  glycan array binding signal (z-score): -0.199
[18]
  glycan array binding signal (z-score): -0.174
[19]
  glycan array binding signal (z-score): 0.044
[20]
  glycan array binding signal (z-score): -0.135
[21]
  glycan array binding signal (z-score): -0.112
Fuc(a1-2)Gal6S(b1-4)Glc
  glycan array binding signal (z-score): -0.165
[22]
  glycan array binding signal (z-score): -0.069
[23]
  glycan array binding signal (z-score): -0.207
